{"source": "the supplement of paper PMC8728848", "assay_in_all_cases": "glycan array binding signal (z-score within array); higher = stronger binding", "conditions_in_all_cases": "glycan notation: IUPAC condensed, linker removed", "key": {"Fuc(a1-3)GlcNAc": {"target": "Fuc(a1-3)GlcNAc", "procedure,_shortened": "(§1)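 Glycan array data were curated from 3228 arrays in the Consortium for Functional Glycomics database and kept only where the protein sequence was available. Glycan names were converted to IUPAC-condensed notation, and columns mapping to the same glycan were averaged. The binding signal is a within-array Z-score, averaged across arrays of the same protein sequence at different concentrations or buffers and across linkers. Negative Z-scores can be read as non-binding.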"}, "[1]": {"target": "Fuc(a1-3)[Gal(b1-4)]Glc6S", "procedure,_shortened": "as §1"}, "[2]": {"target": "Fuc(a1-3)[Gal(b1-4)]GlcNAc", "procedure,_shortened": "as §1"}, "[3]": {"target": "Fuc(a1-3)[Gal(b1-4)]GlcNAc(b1-2)Man", "procedure,_shortened": "as §1"}, "[4]": {"target": "Fuc(a1-3)[Gal(b1-4)]GlcNAc(b1-2)Man(a1-3)[Fuc(a1-3)[Gal(b1-4)]GlcNAc(b1-2)Man(a1-6)]Man(b1-4)GlcNAc(b1-4)GlcNAc", "procedure,_shortened": "as §1"}, "[5]": {"target": "Fuc(a1-3)[Gal(b1-4)]GlcNAc(b1-2)Man(a1-3)[Fuc(a1-3)[Gal(b1-4)]GlcNAc(b1-2)Man(a1-6)]Man(b1-4)GlcNAc(b1-4)[Fuc(a1-6)]GlcNAc", "procedure,_shortened": "as §1"}, "[6]": {"target": "Fuc(a1-3)[Gal(b1-4)]GlcNAc(b1-3)Gal(b1-3)[Fuc(a1-4)]GlcNAc", "procedure,_shortened": "as §1"}, "[7]": {"target": "Fuc(a1-3)[Gal(b1-4)]GlcNAc(b1-3)Gal(b1-4)[Fuc(a1-3)]GlcNAc", "procedure,_shortened": "as §1"}, "[8]": {"target": "Fuc(a1-3)[Gal(b1-4)]GlcNAc(b1-3)Gal(b1-4)[Fuc(a1-3)]GlcNAc(b1-3)Gal(b1-4)[Fuc(a1-3)]GlcNAc", "procedure,_shortened": "as §1"}, "[9]": {"target": "Fuc(a1-3)[Gal(b1-4)]GlcNAc(b1-3)GalNAc", "procedure,_shortened": "as §1"}, "[10]": {"target": "Fuc(a1-3)[Gal(b1-4)]GlcNAc(b1-6)GalNAc", "procedure,_shortened": "as §1"}, "[11]": {"target": "Fuc(a1-3)[Gal(b1-4)]GlcNAc(b1-6)[Gal(b1-3)GlcNAc(b1-3)]Gal(b1-4)Glc", "procedure,_shortened": "as §1"}, "[12]": {"target": "Fuc(a1-3)[Gal(b1-4)]GlcNAc6S", "procedure,_shortened": "as §1"}, "[13]": {"target": "Fuc(a1-3)[Gal3S(b1-4)]Glc", "procedure,_shortened": "as §1"}, "[14]": {"target": "Fuc(a1-3)[Gal3S(b1-4)]GlcNAc", "procedure,_shortened": "as §1"}, "[15]": {"target": "Fuc(a1-3)[Gal3S(b1-4)]GlcNAc6S", "procedure,_shortened": "as §1"}, "[16]": {"target": "Fuc(a1-3)[GalNAc(b1-4)]GlcNAc", "procedure,_shortened": "as §1"}, "[17]": {"target": "Fuc(a1-3)[GalNAc(b1-4)]GlcNAc6S", "procedure,_shortened": "as §1"}, "Fuc(a1-4)GlcNAc": {"target": "Fuc(a1-4)GlcNAc", "procedure,_shortened": "as §1"}, "Fuc(b1-3)GlcNAc": {"target": "Fuc(b1-3)GlcNAc", "procedure,_shortened": "as §1"}, "Gal(a1-2)Gal": {"target": "Gal(a1-2)Gal", "procedure,_shortened": "as §1"}, "Gal(a1-3)Gal": {"target": "Gal(a1-3)Gal", "procedure,_shortened": "as §1"}, "Gal(a1-3)Gal(b1-3)GlcNAc": {"target": "Gal(a1-3)Gal(b1-3)GlcNAc", "procedure,_shortened": "as §1"}, "[18]": {"target": "Gal(a1-3)Gal(b1-3)GlcNAc(b1-2)Man", "procedure,_shortened": "as §1"}, "[19]": {"target": "Gal(a1-3)Gal(b1-3)GlcNAc(b1-2)Man(a1-3)[Gal(a1-3)Gal(b1-3)GlcNAc(b1-2)Man(a1-6)]Man(b1-4)GlcNAc(b1-4)GlcNAc", "procedure,_shortened": "as §1"}, "[20]": {"target": "Gal(a1-3)Gal(b1-3)GlcNAc(b1-3)GalNAc", "procedure,_shortened": "as §1"}, "[21]": {"target": "Gal(a1-3)Gal(b1-3)GlcNAc(b1-6)GalNAc", "procedure,_shortened": "as §1"}, "[22]": {"target": "Gal(a1-3)Gal(b1-3)[Fuc(a1-4)]GlcNAc(b1-2)Man(a1-3)[Gal(a1-3)Gal(b1-3)[Fuc(a1-4)]GlcNAc(b1-2)Man(a1-6)]Man(b1-4)GlcNAc(b1-4)GlcNAc", "procedure,_shortened": "as §1"}, "Gal(a1-3)Gal(b1-4)Glc": {"target": "Gal(a1-3)Gal(b1-4)Glc", "procedure,_shortened": "as §1"}, "Gal(a1-3)Gal(b1-4)GlcNAc": {"target": "Gal(a1-3)Gal(b1-4)GlcNAc", "procedure,_shortened": "as §1"}}, "note": "This is one part of the list."}
{"binder": "GS7807P-bth-537-23-537 (Bacteroides thetaiotaomicron) (protein) NYENINSNPYEAPDLSADGYALGSAMNNLAGCVVSPDVNTAQFTDCLLGGPLGGYFADSNAGFTETISNFNPKDDWSRVFLKSDKIIPTLYSNLTQVKLVSQNTNDPVPYAIAQVIKVAAMHRVTDAFGPIPYSQIGANGEIATPYDSQEVTYNTFFDELNAAIATLNENSNEQLVPTADYIYKGDVKKWIRFANSLKLRLAIRIAYANPVKAQQMAEEAVNPANGGVIESNADNATWNYFETSQNPIYVATRYNQVQTSDHGGVPCLTGGDTHAAADIICYMNGYKDNRREKFFTKSEWAGQDYVGMRRGIVIPELKTTGHKYSGVNIAPTSPLYWMNAAEVAFLRAEGQAVFNFSMGGTAESFYNQGIRLSFEQWGADGVEDYLKDDVNKPTAYTDPAGTNTYQNALSNITIKWNDSADKEEKQERIIVQKWIANWQLGNEAWADFRRTGYPKLIPVKENKSGGVVDSEKGARRMPYPLDEFVSNKANVEYAIANYLHGADNMATDVWWASKK", "values": [{"measurement": "glycan array binding signal (z-score)", "setting": "Fuc(a1-3)GlcNAc", "value": -0.318}, {"measurement": "glycan array binding signal (z-score)", "setting": "[1]", "value": -0.054}, {"measurement": "glycan array binding signal (z-score)", "setting": "[2]", "value": -0.344}, {"measurement": "glycan array binding signal (z-score)", "setting": "[3]", "value": -0.365}, {"measurement": "glycan array binding signal (z-score)", "setting": "[4]", "value": -0.004}, {"measurement": "glycan array binding signal (z-score)", "setting": "[5]", "value": 1.93}, {"measurement": "glycan array binding signal (z-score)", "setting": "[6]", "value": -0.173}, {"measurement": "glycan array binding signal (z-score)", "setting": "[7]", "value": -0.039}, {"measurement": "glycan array binding signal (z-score)", "setting": "[8]", "value": -0.353}, {"measurement": "glycan array binding signal (z-score)", "setting": "[9]", "value": -0.078}, {"measurement": "glycan array binding signal (z-score)", "setting": "[10]", "value": -0.197}, {"measurement": "glycan array binding signal (z-score)", "setting": "[11]", "value": 0.217}, {"measurement": "glycan array binding signal (z-score)", "setting": "[12]", "value": -0.365}, {"measurement": "glycan array binding signal (z-score)", "setting": "[13]", "value": -0.325}, {"measurement": "glycan array binding signal (z-score)", "setting": "[14]", "value": -0.061}, {"measurement": "glycan array binding signal (z-score)", "setting": "[15]", "value": -0.388}, {"measurement": "glycan array binding signal (z-score)", "setting": "[16]", "value": 0.192}, {"measurement": "glycan array binding signal (z-score)", "setting": "[17]", "value": -0.273}, {"measurement": "glycan array binding signal (z-score)", "setting": "Fuc(a1-4)GlcNAc", "value": -0.324}, {"measurement": "glycan array binding signal (z-score)", "setting": "Fuc(b1-3)GlcNAc", "value": -0.323}, {"measurement": "glycan array binding signal (z-score)", "setting": "Gal(a1-2)Gal", "value": -0.396}, {"measurement": "glycan array binding signal (z-score)", "setting": "Gal(a1-3)Gal", "value": 0.004}, {"measurement": "glycan array binding signal (z-score)", "setting": "Gal(a1-3)Gal(b1-3)GlcNAc", "value": 0.94}, {"measurement": "glycan array binding signal (z-score)", "setting": "[18]", "value": 1.1}, {"measurement": "glycan array binding signal (z-score)", "setting": "[19]", "value": 0.266}, {"measurement": "glycan array binding signal (z-score)", "setting": "[20]", "value": 0.726}, {"measurement": "glycan array binding signal (z-score)", "setting": "[21]", "value": 0.143}, {"measurement": "glycan array binding signal (z-score)", "setting": "[22]", "value": 1.45}, {"measurement": "glycan array binding signal (z-score)", "setting": "Gal(a1-3)Gal(b1-4)Glc", "value": -0.101}, {"measurement": "glycan array binding signal (z-score)", "setting": "Gal(a1-3)Gal(b1-4)GlcNAc", "value": 0.266}]}
